Experimental findings from PubChem BioAssay AID1240 (Sanford-Burnham Center for Chemical Genomics, 2008) are described below.

The whole screen tested about 50,000 compounds, of which about 800 (1.6%) showed an effect of 50% or more. This is one part of the list.

This assay addresses Bcl-2-like protein 10 (Homo sapiens) (UniProt Q9HD36). The assay is described as follows: TR3 peptide-Bcl-B binding displacers, biochemical primary FP assay, phenotype converters (AID 1240).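 Further: 0% = Bcl-B with tracer peptide and DMSO and 100% = tracer peptide lacking Bcl-B.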 The following applies: GST-Bcl-B / FITC-TR3 peptide fluorescence polarization; stronger effect = higher value; compound at 3.75 mg/L.
Chain of UniProt Q9HD36 (Q9HD36 whole entry, looked up): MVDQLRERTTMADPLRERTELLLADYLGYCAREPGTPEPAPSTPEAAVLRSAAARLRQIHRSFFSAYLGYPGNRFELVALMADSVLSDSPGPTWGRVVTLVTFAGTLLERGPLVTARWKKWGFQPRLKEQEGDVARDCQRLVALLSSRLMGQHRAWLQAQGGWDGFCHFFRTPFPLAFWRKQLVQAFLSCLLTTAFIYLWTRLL
On to `O=C(Nc1ccc2c(c1)OCO2)C(=O)Nc1ccc2c(c1)OCO2`, for which the displacement was determined as 21.3%. For `COc1cccc(CN2CCN(C(=O)c3ccc(-c4ccccc4)cc3)CC2)c1OC`, the displacement is -9%. The value for `Brc1ccc(-c2noc(C(c3ccccc3)c3ccccc3)n2)cc1` was 10.5%; that for `CCOC(=O)c1c(C)[nH]c(/C=N/O)c1O` was 9%; that for `O=C(NCCNc1ccc([N+](=O)[O-])cc1)c1ccc(Cl)cc1` was 12.4%. As to `CSc1nsc(SC)c1NC(=O)OCCN1CCOC1=O`, the displacement stood at 13.8%. For the compound `COc1ccc(N2C(=O)/C(=C/c3ccc(OCc4ccccc4F)c(OC)c3)C(=O)NC2=S)cc1`, the displacement was -10.9%.

On to `COc1ccc(/C=C(\NC(=O)c2ccc(OC)cc2)C(=O)NCc2ccco2)cc1`, for which the displacement is -6%.

Consider `CCOC(=O)NC(NC(=S)Nc1ccc(NC(C)=O)cc1)C(Cl)(Cl)Cl` (stereo not drawn), for which the displacement amounted to 4%. For `Cc1cc(=O)oc2cc(OCc3ccc(F)cc3)c(Cl)cc12`, the displacement amounted to 16.8%. As to `COc1ccc(/C=C2/SC(=S)N(/N=C/c3cc([N+](=O)[O-])ccc3O)C2=O)c(OC)c1`, the displacement was -3.6%. Consider `O=C(Nc1ccc(Cl)c(-c2nc3ccccc3[nH]2)c1)c1cccs1`, for which the displacement is -63.3%.

On to `O=C(NC(Nc1ccc([N+](=O)[O-])cc1)C(Cl)(Cl)Cl)c1cccc(I)c1` (stereo not drawn), for which the displacement was 6.8%.

With `COC(=O)C1=C(C)NC(=O)/C1=C\c1ccc(C(=O)O)cc1`, the displacement is 4%. `Cc1ccc(S(=O)(=O)N2CCN(Cc3cccc4ccccc34)CC2)cc1`: the displacement was 11.7%.

Take `CC(O)CNC(=O)C(=O)Nc1ccc(F)cc1` (stereo not drawn): the displacement is 9.1%.

Take `O=C(O)CN1C(=O)/C(=C\c2ccc(-c3ccccc3Cl)o2)SC1=S`: the displacement is -121%. For the compound `COc1ccc(Br)cc1C1C(C(=O)OCCOC(C)C)=C(C)NC2=C1C(=O)CCC2` (stereo not drawn), the displacement was -2.6%.

Take `O=C/C(=C\Nc1ccc(S(=O)(=O)CCO)cc1)c1nc2cc(Cl)ccc2o1`: the displacement stood at 88.3%. As for `CCN(CC)c1ccc(C(=O)Nc2ccc(F)cc2F)cc1`, the displacement turned out to be 5.1%. Regarding `O=C1NC(=O)/C(=C\c2ccc(O)cc2)S1`, the displacement was determined as 1.8%. Consider `O=C(Nc1cccc(-c2nc3cc(Cl)ccc3o2)c1)c1cccc([N+](=O)[O-])c1`, for which the displacement was -3.3%.

On to `COc1ccccc1CC(=O)N1CCc2ccccc21`, for which the displacement was found to be 13.6%. The value for `CCN(CC)c1ccc(NC(=O)c2cccc(OCc3ccccc3)c2)cc1` was 32.4%; that for `CCN(CC)C(=O)c1cn(-c2ccccc2)nc1-c1ccc(Br)cc1` was -0.6%; that for `CCN=C(Nc1cccc(Cl)c1)SC1CC(=O)N(c2ccc(OCC)cc2)C1=O` (stereo not drawn) was -8%. In the case of `Cc1cccc(NC(=O)c2ccccc2NC(=O)c2ccccc2F)c1`, the displacement stood at 7.7%. Then `COc1ccc2c(c1OC)C(=O)N(c1ccc(Cl)c(Cl)c1)C2=O`, with -15%; and `O=c1oc2ccc(Br)cc2cc1-c1nc(-c2ccc([N+](=O)[O-])cc2)cs1`, with -7.2%. In the case of `COc1ccccc1OCCNC(=O)c1ccc(Br)cc1`, the displacement is -19.3%.

For the compound `Cc1ccc2nsnc2c1NC(=O)COc1ccc([N+](=O)[O-])cc1`, the displacement was -1.5%. `COc1ccc(C2(CC(=O)O)CCOC(C)(C)C2)cc1` (stereo not drawn): the displacement was found to be 2.8%. Take `O=C(Oc1ccc2ccccc2c1)c1cc([N+](=O)[O-])ccc1Cl`: the displacement was -0.9%. The value for `CCOc1ccc(NC2=CC(=O)CC(c3ccccc3)C2)cc1` (stereo not drawn) was -3.3%. As for `O=C(O)c1ccc(/C=N/N2CCN(c3ccccc3)CC2)cc1`, the displacement was found to be 3.1%. With `CC1CCc2c(sc(N)c2C(N)=O)C1` (stereo not drawn), the displacement came out at 34%. Take `C/C(=N\N=C1\NC(=O)C(CC(=O)Nc2ccccc2C)S1)c1ccco1` (stereo not drawn): the displacement was 10.3%. In the case of `CS(=O)(=O)N(Cc1ccc(C(=O)NCCSc2ccccn2)cc1)c1ccccc1`, the displacement came out at 3%.

Take `CC(C)Oc1ccc(C2Nc3ccccc3NC3=C2C(=O)CC(C)(C)C3)cc1` (stereo not drawn): the displacement is -0.6%. Turning to `Brc1ccc(OCCCCCN2CCCCC2)cc1`, the displacement is 7.9%. Then `C(=N/Nc1nc2ccccc2[nH]1)/c1ccc(N2CCOCC2)cc1`, with -10%; and `Cc1ccc(C(=O)Nc2ccccc2C(=O)N2CCC(C)CC2)cc1`, with -9.9%. Regarding `COc1ccc(-c2cc(-c3ccccc3)n[nH]2)c(O)c1`, the displacement stood at 0.3%.

Turning to `O=c1oc2ccc([N+](=O)[O-])cc2c(SCCNc2ccccc2)c1[N+](=O)[O-]`, the displacement was -8.1%. Take `O=C(CCn1c2ccccc2c2ccccc21)NNC(=S)Nc1ccccc1`: the displacement is -12.7%. As for `COc1cccc(OCCCCNCC2CCCO2)c1` (stereo not drawn), the displacement is -8.5%. With `COc1ccc([N+](=O)[O-])cc1/C=C1/SC(=O)NC1=O`, the displacement is 9.2%. Then `COC(=O)CNC(c1ccccc1Cl)c1cc(Br)ccc1NC(=O)CCN1CCOCC1` (stereo not drawn), with 1.4%; and `O=[N+]([O-])c1ccc(Oc2ccc(S(=O)(=O)N3CCCC3)cc2)cc1`, with -8%. Then `O=[N+]([O-])c1cccc(C2Nc3ccc4ccccc4c3C3C=CCC32)c1` (stereo not drawn), with 11.1%; and `O=[N+]([O-])c1cc2nc(N3CCOCC3)c(N3CCOCC3)nc2cc1[N+](=O)[O-]`, with -4.6%. Then `CCOc1ccc2c(c1)-c1c(ssc1=S)C(C)(C)N2C(=O)c1ccc(OC)c(OC)c1`, with 4.8%. Turning to `O=C(Nc1cccc2ccccc12)C1CC2CCC1C2` (stereo not drawn), the displacement was -12.3%. Regarding `Cc1cc(Cl)ccc1OCC(=O)Nc1cc(Cl)cc(Cl)c1`, the displacement is 7.9%. On to `CCOc1ccc(C(=O)Nc2ccc(OC)c(OC)c2)cc1[N+](=O)[O-]`, for which the displacement was 10.1%.

For the compound `CCCN(CCC)c1ccc(C2NC(=O)c3c(sc4c3CCN(C)C4)N2)cc1` (stereo not drawn), the displacement was -17.8%. As to `CCc1ccccc1NC(=O)C1CC(=O)N(c2ccc(C)cc2)C1` (stereo not drawn), the displacement was 10.4%. As to `COc1cc(NC(=O)/C=C/c2ccc(OC)c(Br)c2)c(OC)cc1Cl`, the displacement turned out to be 5.1%. The value for `Cc1ccc(S(=O)(=O)/N=C(\N)c2ccc(F)cc2)cc1` was 15.6%; that for `CCOc1ccc(-c2nc3nc(C)c(Br)cc3[nH]2)cc1` was 5.7%.

As for `O=C(Cc1ccccc1)N1CCN(c2ccc([N+](=O)[O-])cc2Cl)CC1`, the displacement was -1.3%.

Regarding `Cc1ccc(-c2csc(NC(=O)c3ccc(F)cc3)n2)cc1`, the displacement is -1.1%.

For `CCOC(=O)c1c(NC(=O)c2ccc(OC)c(OC)c2)sc(C(=O)Nc2ccccc2F)c1C`, the displacement was determined as 2.9%. With `CC(=O)Nc1ccc2cc(S(=O)(=O)O)cc(OS(=O)(=O)c3ccccc3)c2c1`, the displacement is -1.2%.

On to `Cc1ccc(S(=O)(=O)Nc2cccc(-c3csc(-c4ccccc4)n3)c2)cc1[N+](=O)[O-]`, for which the displacement came out at 17.5%. Turning to `Cc1nnc(N/N=C/c2ccc(C(=O)O)cc2)[nH]c1=O`, the displacement was -23.2%.

`Cc1cc(C)nc(/N=C(/N)Nc2ccc([N+](=O)[O-])cc2C)n1`: the displacement is -8.4%. In the case of `CCN(CC)c1ccc(NC(=O)c2ccc(-c3ccc([N+](=O)[O-])cc3C)o2)cc1`, the displacement was 13.9%.
